The values that follow come from the supplement of paper PMC9446081.

Hit rate of the full screen: of about 39,000 compounds, about 220 (0.56%) showed activity. Some of the results follow.
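Note: static incubation at 37 °C against the wild-type strain, values averaged over two biological replicates.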

This experiment concerns Escherichia coli K-12 BW25113. Nature of the experiment: relative growth (OD600 normalised to plate interquartile mean) (fraction); higher = less growth inhibition, active = 0.2 or less. As to conditions: 50 µM; LB; incubation time: overnight (16-24 h).
Regarding `C[C@H](CO)N1C[C@H](C)[C@@H](CN(C)S(=O)(=O)c2ccc(Cl)cc2)OCCCC[C@H](C)Oc2ccc(NC(=O)Nc3cccc4ccccc34)cc2C1=O`, the relative growth is inactive: 1.02.

As to `COC1=C(OC)C(=O)C(C/C=C(\C)CC/C=C(\C)CC/C=C(\C)CC/C=C(\C)CC/C=C(\C)CC/C=C(\C)CC/C=C(\C)CC/C=C(\C)CC/C=C(\C)CCC=C(C)C)=C(C)C1=O`, the relative growth is inactive: 0.976.

For the compound `CC(C)NC(=O)Nc1ccc2c(c1)C(=O)N([C@@H](C)CO)C[C@@H](C)[C@@H](CN(C)Cc1ccccc1)OCCCC[C@H](C)O2`, the relative growth was inactive: 0.964.

As for `Cc1noc(C)c1S(=O)(=O)Nc1cccc2c1O[C@@H](CN(C)C(=O)Nc1ccccc1)[C@@H](C)CN([C@H](C)CO)C2=O`, the relative growth is inactive: 0.978.

Take `C[C@H]1CN([C@@H](C)CO)C(=O)c2cccc(NC(=O)Nc3ccccc3)c2O[C@H]1CN(C)S(=O)(=O)c1cn(C)cn1`: the relative growth was inactive: 0.987.

As to `C[C@H](CO)N1C[C@H](C)[C@@H](CN(C)S(=O)(=O)c2ccc(Cl)cc2)Oc2c(NC(=O)Nc3cccc4ccccc34)cccc2C1=O`, the relative growth was inactive: 1.02.

As for `C[C@H]1CCCCO[C@H](CN(C)Cc2ccc(C(F)(F)F)cc2)[C@@H](C)CN([C@@H](C)CO)C(=O)c2cc(NC(=O)c3ccncc3)ccc2O1`, the relative growth was inactive: 0.962.

On to `COC(=O)[C@H](Cc1ccccc1)N1CC2=CC(=O)[C@H](C3CC3)[C@H]2[C@@H]1[C@@H](O)CCn1cc(-c2cccc(/C=C/C(=O)NO)c2)nn1`, for which the relative growth was inactive: 1.

On to `Br.Cn1c(=O)c2c(ncn2C)n(C)c1=O`, for which the relative growth is inactive: 1.03.

Consider `CC(C)Sc1n[nH]c(=O)[nH]c1=O`, for which the relative growth is inactive: 0.86.

In the case of `CN(C)CCOC(=O)COc1ccc(Cl)cc1.Cl`, the relative growth is inactive: 0.94.

`c1n[nH]nc1SSc1cn[nH]n1`: the relative growth is inactive: 0.536.

Consider `C[C@@H]1CN([C@H](C)CO)C(=O)c2cc(NS(=O)(=O)c3ccc(F)cc3)ccc2O[C@@H](C)CCCCO[C@H]1CN(C)Cc1ccc(C(F)(F)F)cc1`, for which the relative growth was inactive: 1.02.

`CCCN(C)C[C@H]1OCCCC[C@H](C)Oc2ccc(NC(=O)CCC(F)(F)F)cc2C(=O)N([C@H](C)CO)C[C@@H]1C`: the relative growth was inactive: 1.

With `O=C(CCCCCC(=O)N/N=C/[C@H](O)[C@H](O)[C@@H](O)[C@@H](O)CO)NO`, the relative growth is inactive: 0.989.

Turning to `CC(C)NCCCC[C@H](NC(=O)[C@H]1CCC(=O)N[C@@H](Cc2ccccc2)C(=O)N[C@H](Cc2ccc(O)cc2)C(=O)N[C@@H](CCCCNC(C)C)C(=O)N[C@H](CCCN=C(N)N)C(=O)N[C@@H](Cc2ccc3ccccc3c2)C(=O)NCC(=O)N1)C(N)=O`, the relative growth is inactive: 1.01.

As to `C[C@H](CO)N1C[C@H](C)[C@@H](CN(C)C(=O)Nc2cccc3ccccc23)Oc2ccc(NC(=O)Cc3ccccc3)cc2C1=O`, the relative growth is inactive: 1.06.

For `COc1ccc(NC(=O)Nc2ccc3c(c2)C(=O)N([C@H](C)CO)C[C@H](C)[C@H](CN(C)CC2CCCCC2)OCCCC[C@@H](C)O3)cc1`, the relative growth was inactive: 0.983.

Regarding `CN(C)CCO[C@@H]1C[C@@H]2CN(S(=O)(=O)c3cn(C)cn3)CCN2C1`, the relative growth was inactive: 1.05.

As for `COc1ccc(NC(=O)N(C)C[C@@H]2OCc3ccccc3-c3c(n(C)c4ccccc34)C(=O)N([C@@H](C)CO)C[C@@H]2C)cc1`, the relative growth is inactive: 1.01.

Consider `C[C@@H]1CN([C@@H](C)CO)C(=O)c2cc(NC(=O)C3CCCCC3)ccc2O[C@@H](C)CCCCO[C@@H]1CN(C)C(=O)Nc1ccc2c(c1)OCO2`, for which the relative growth was inactive: 0.99.

On to `COc1ccc(S(=O)(=O)Nc2ccc3c(c2)CC(=O)N([C@H](C)CO)C[C@@H](C)[C@H](CN(C)S(=O)(=O)c2ccccc2)O3)cc1`, for which the relative growth was inactive: 1.04.

Consider `COc1ccc(NC(=O)Nc2cccc3c2O[C@@H](CN(C)S(C)(=O)=O)[C@@H](C)CN([C@H](C)CO)C3=O)cc1`, for which the relative growth is inactive: 1.01.

Turning to `C=CCOC(=O)[C@@H]1[C@H]2C(=O)O[C@H](c3ccccc3)[C@H](c3ccccc3)N2[C@H](c2ccc(OCCOC(=O)[C@H]3C[C@H]4C(=O)NCC(=O)N4[C@H]3c3ccc(O)cc3)cc2)[C@@]12C(=O)Nc1ccccc12`, the relative growth was inactive: 1.06.

As to `NCCCC(N)C(=O)O.NCCCC(N)C(=O)O.O=C(O)CCC(=O)C(=O)O`, the relative growth is inactive: 1.09.

In the case of `C[C@H]1CN([C@@H](C)CO)C(=O)c2cc(C#CCN(C)C)cnc2O[C@@H]1CN(C)S(=O)(=O)c1cn(C)cn1`, the relative growth was inactive: 0.983.

For the compound `C[C@@H]1CN([C@H](C)CO)C(=O)c2cccc(NC(=O)Nc3ccc(C(F)(F)F)cc3)c2O[C@H]1CN(C)Cc1ccc(Cl)c(Cl)c1`, the relative growth is inactive: 0.982.

As for `O=C(C[C@H]1C[C@@H]2c3cc(NC(=O)NC4CCCC4)ccc3O[C@@H]2[C@@H](CO)O1)NCCN1CCCCC1`, the relative growth is inactive: 0.944.

As to `C[C@H](CO)N1C[C@H](C)[C@@H](CN(C)Cc2ccccc2)Oc2ccc(NC(=O)Nc3ccc(C(F)(F)F)cc3)cc2C1=O`, the relative growth is inactive: 0.915.

Regarding `OC[C@@H]1CC[C@@H]2O[C@H](CCc3ccc(C#Cc4ccccc4)cc3)[C@H](n3cc(-c4ccccc4)nn3)C[C@@H]2O1`, the relative growth was inactive: 1.07.

`C[C@H]1CN([C@@H](C)CO)C(=O)c2cc(NC(=O)CCCCCC(=O)Nc3ccccc3N)ccc2O[C@H]1CN(C)Cc1ccc(Oc2ccccc2)cc1`: the relative growth was inactive: 0.992.

Turning to `C#Cc1ccc(C(=O)NO)cc1`, the relative growth is inactive: 0.918.

`C[C@@H]1CN([C@@H](C)CO)C(=O)Cc2cc(NS(=O)(=O)c3ccc(F)cc3)ccc2O[C@@H]1CN(C)Cc1ccncc1`: the relative growth was inactive: 0.983.

Regarding `C[C@H]1CN([C@@H](C)CO)C(=O)c2cc(NC(=O)Nc3cccc4ccccc34)ccc2O[C@@H]1CN(C)C(=O)Nc1cccc2ccccc12`, the relative growth was inactive: 1.04.

As to `COCC#Cc1ccc([C@@H]2[C@H](CO)N3C(=O)CN(C(=O)c4ccncc4)C[C@@H]23)cc1`, the relative growth is inactive: 0.998.

On to `COc1ccccc1OCC(O)COC(N)=O` (stereo not drawn), for which the relative growth is inactive: 0.939.

`CC(C)[C@H](NC(=O)[C@H](C)N(C)C)C(=O)N1CC[C@@H]2Oc3ccc(cc3)/C=C\NC(=O)[C@H](Cc3ccccc3)NC(=O)[C@H]21`: the relative growth is inactive: 0.997.

As for `COc1ccccc1C#Cc1ccc2c(c1)O[C@@H](CN(C)Cc1cccnc1)[C@H](C)CN([C@@H](C)CO)S2(=O)=O`, the relative growth was inactive: 1.02.

Regarding `C[C@H]1CCCCO[C@@H](CN(C)C(=O)Nc2cccc3ccccc23)[C@@H](C)CN([C@@H](C)CO)C(=O)c2cc(NC(=O)c3ccncc3)ccc2O1`, the relative growth was inactive: 0.965.

Turning to `C[C@H](CO)N1C[C@H](C)[C@@H](CN(C)Cc2ccncc2)OCCCC[C@H](C)Oc2ccc(NC(=O)Nc3cccc4ccccc34)cc2C1=O`, the relative growth was inactive: 0.983.

Consider `C/C=C/c1ccc2c(c1)O[C@@H](CN(C)Cc1ccc(C(=O)O)cc1)[C@H](C)CN([C@@H](C)CO)S2(=O)=O`, for which the relative growth was inactive: 1.01.

For `COc1ccccc1C#Cc1ccc2c(c1)O[C@@H](CN(C)Cc1cccnc1)[C@H](C)CN([C@H](C)CO)S2(=O)=O`, the relative growth is inactive: 1.04.

On to `NC(=O)c1ccccc1F`, for which the relative growth was inactive: 1.04.

Consider `NC(=O)c1ncn([C@@H]2O[C@H](CO)[C@@H](O)[C@H]2O)n1`, for which the relative growth is inactive: 0.914.

Take `C[C@H]1CN([C@@H](C)CO)C(=O)c2cc(Br)cnc2O[C@H]1CN(C)S(=O)(=O)c1ccc(F)cc1`: the relative growth was inactive: 0.988.

For the compound `Cc1noc(C)c1NC(=O)N(C)C[C@@H]1Oc2c(NC(=O)Nc3ccc(C(F)(F)F)cc3)cccc2C(=O)N([C@@H](C)CO)C[C@@H]1C`, the relative growth was inactive: 0.943.

As for `COc1ccc(S(=O)(=O)N(C)C[C@@H]2Oc3c(NS(=O)(=O)c4cn(C)cn4)cccc3C(=O)N([C@H](C)CO)C[C@@H]2C)cc1`, the relative growth was inactive: 0.996.

Take `Cc1cncc2cccc(S(=O)(=O)N[C@H]3CN[C@@H](COC(=O)NCCOCCOCCN)C3)c12`: the relative growth is inactive: 0.917.

Regarding `COc1ccc(S(=O)(=O)N(C)C[C@H]2OCCCC[C@H](C)Oc3ccc(NS(=O)(=O)c4ccc(Cl)cc4)cc3C(=O)N([C@H](C)CO)C[C@@H]2C)cc1`, the relative growth was inactive: 1.03.

On to `C[C@H](CO)N1C[C@H](C)[C@@H](CN(C)C(=O)Nc2ccc(F)cc2)OCc2ccccc2-c2ccccc2C1=O`, for which the relative growth was inactive: 0.975.

In the case of `O=C(CCCCCCC(=O)N/N=C/c1cccc(B(O)O)c1)NO`, the relative growth is inactive: 1.

Turning to `Cc1ccc(S(=O)(=O)N(C)C[C@@H]2OCCCC[C@H](C)Oc3ccc(NC(=O)NC4CCCCC4)cc3C(=O)N([C@@H](C)CO)C[C@@H]2C)cc1`, the relative growth was inactive: 1.03.

As for `C[C@H](CO)N1C[C@H](C)[C@@H](CN(C)Cc2ccc(C(=O)O)cc2)OCCCC[C@H](C)Oc2ccc(NC(=O)Nc3ccc4c(c3)OCO4)cc2C1=O`, the relative growth was inactive: 0.95.

In the case of `C[C@@H]1CCCCO[C@H](CN(C)C(=O)CCC(F)(F)F)[C@H](C)CN([C@H](C)CO)C(=O)c2cc(NC(=O)CCC(F)(F)F)ccc2O1`, the relative growth is inactive: 1.01.

In the case of `C[C@H]1CCCCO[C@H](CN(C)C(=O)Cc2ccccc2)[C@@H](C)CN([C@@H](C)CO)C(=O)c2cc(NC(=O)CCC(F)(F)F)ccc2O1`, the relative growth is inactive: 0.991.

For the compound `C[C@@H]1CN([C@H](C)CO)C(=O)c2cccc(NC(=O)c3cnccn3)c2O[C@@H]1CN(C)S(=O)(=O)c1ccccc1`, the relative growth was inactive: 1.01.

With `COc1ccc(CN(C)C[C@@H]2OCCCC[C@H](C)Oc3ccc(NC(=O)Nc4c(C)noc4C)cc3C(=O)N([C@@H](C)CO)C[C@H]2C)cc1`, the relative growth is inactive: 1.01.

For the compound `C[C@H](CO)N1C[C@H](C)[C@H](CN(C)CC2CCCCC2)OCCCC[C@H](C)Oc2ccc(NC(=O)c3ccncc3)cc2C1=O`, the relative growth is inactive: 0.987.
